# Data published in PubChem BioAssay AID485294 (National Center for Advancing Translational Sciences (NCATS), 2010).
# The whole screen tested about 370,000 compounds, of which about 150 (0.041%) were called active. This list was built around the results that the source calls inconclusive (neither active nor inactive); the mix of calls is not that of the screen. The call rests on the fitted dose curve; in most records, active means well fitted inhibition curve with a large enough effect; inconclusive means small, poorly fitted or top-dose-only effect; inactive means flat fitted curve, though single readings scatter. No potency is given beside an inconclusive call; the fits are too rough.
# Target: Beta-lactamase (Escherichia coli (strain K12)) (UniProt P00811)
# Chain of UniProt P00811 (P00811 whole entry, looked up): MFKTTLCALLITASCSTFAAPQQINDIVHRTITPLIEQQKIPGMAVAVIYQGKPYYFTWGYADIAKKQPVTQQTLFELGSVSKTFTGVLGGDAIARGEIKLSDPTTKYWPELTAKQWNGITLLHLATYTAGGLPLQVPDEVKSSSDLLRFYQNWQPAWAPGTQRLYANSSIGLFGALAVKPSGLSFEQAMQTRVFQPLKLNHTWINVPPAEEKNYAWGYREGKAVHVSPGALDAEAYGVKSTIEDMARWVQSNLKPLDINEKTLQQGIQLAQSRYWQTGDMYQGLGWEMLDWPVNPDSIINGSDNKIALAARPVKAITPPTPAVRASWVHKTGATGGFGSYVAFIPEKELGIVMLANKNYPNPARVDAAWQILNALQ
# Test: qHTS Inhibitors of AmpC Beta-Lactamase (assay with detergent); further: nearly all actives have a fitted effect of over 25% in size;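 on activity change, negative = inhibition: 0% = no-compound wells and -100% = no-enzyme wells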
# Details: AmpC hydrolysis of nitrocefin, absorbance 480 nm, 0.01% Triton; activity change, negative = inhibition: at 114 µM (top of the series)
# Procedure, shortened: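 20 mM phosphate pH 7.0 + 0.01% (detergent screen) or 0.0001% Triton X-100; 5.3 nM AmpC reagent; cpd preinc 15 min RT; nitrocefin (800 uM stock) to start; A480 q20 s × 4 min; Activity was normalised to no-enzyme and no-compound control wells.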
# Potency means the concentration at half of the fitted maximal effect; tags describe the fitted curve by direction and shape.
Structure (SMILES),Potency,"activity change, negative = inhibition"
Cc1ccc(/C=C/c2onc(C)c2S(=O)(=O)N2CCC(C(=O)Nc3ccccc3C(F)(F)F)CC2)cc1,"inconclusive [inhibitor, single point]",–
COCCNC(=O)c1ccc(C(=O)NCCOC)s1,"inconclusive [inhibitor, full curve]",–
CCc1ccccc1NS(=O)(=O)c1ccc2c(c1)CC(=O)N2,–,inactive: -0.326%
O=C(NCc1cccc(CNC(=O)C(=O)NCc2ccco2)c1)C(=O)NCc1ccco1,"inconclusive [inhibitor, single point]",–
Cc1ccc(OCCCC(=O)NCc2ccco2)c(C)c1,–,inactive: 0.677%
Cc1ccc(S(=O)(=O)c2ccc(NN)cc2)cc1,"inconclusive [inhibitor, partial curve]",–
O=C1c2ccccc2NC(c2ccccc2Br)N1CCCN1CCOCC1 (configuration not stated),–,inactive: 1.19%
CCN(CC)C(=O)CSc1nnc([C@@H](NC(=O)OC(C)(C)C)C(C)C)o1,"inconclusive [inhibitor, full curve, poor fit]",–
Cc1ccc(-c2nnc(SCC(=O)Nc3ccccc3F)o2)cc1,"inconclusive [inhibitor, full curve, poor fit]",–
CC(C)(C)C(=O)COC(=O)c1ccc(O)cc1,"inconclusive [inhibitor, single point]",–
CCOC(=O)N1CCc2c(sc3c2C(=O)NC(c2cc(OC)c(OC)c(OC)c2)N3)C1 (configuration not stated),"inconclusive [inhibitor, single point]",–
CCCCCCC1CCC(c2nc(-c3ccncc3)no2)CC1 (configuration not stated),"inconclusive [inhibitor, full curve, poor fit]",–
Cn1nnnc1Sc1ncnc2scc(-c3ccc(C(F)(F)F)cc3)c12,–,inactive: -1.02%
CN(CCCNC(=O)C1CCC(=O)N1Cc1ccccc1Cl)c1ccccc1 (configuration not stated),"inconclusive [inhibitor, full curve, poor fit]",–
CCc1cc(Br)ccc1NC(=O)C1CCCO1 (configuration not stated),"inconclusive [inhibitor, full curve, poor fit]",–
CCN1C(=O)[C@@H]2[C@H](C1=O)[C@@H]1C(=O)Nc3ccccc3C(=O)N1[C@@H]2c1cccc(OC)c1,"inconclusive [inhibitor, full curve, poor fit]",–
CC(C)C1NC(C(=O)O)Cc2c1[nH]c1ccccc21 (configuration not stated),"inconclusive [inhibitor, full curve, poor fit]",–
CC(NC(=O)COc1cccnc1[N+](=O)[O-])c1ccc(F)cc1 (configuration not stated),"inconclusive [inhibitor, partial curve]",–
O=C1OCc2ccc(NC(=O)c3c(F)cccc3Cl)cc21,"inconclusive [inhibitor, partial curve]",–
COc1ccc(-c2noc(N3CCC(C(=O)Nc4cccc(OC)c4)CC3)n2)cc1,"inconclusive [inhibitor, partial curve, poor fit]",–
O=C(CCC1N=C2c3ccccc3N=C(SCc3ccc(F)cc3)N2C1=O)NCCc1ccccc1 (configuration not stated),–,inactive: 8.49%
Cc1ccc(NC(=O)CC2SC(=NCC3CCCO3)NC2=O)cc1Cl (configuration not stated),"inconclusive [inhibitor, single point]",–
O=S1(=O)CCN(OCc2ccc(F)cc2Cl)CC1,"inconclusive [inhibitor, full curve, poor fit]",–

Structure (SMILES),Potency,"activity change, negative = inhibition"
CCOc1ccc(Br)cc1C(=S)N1CCCC1,"inconclusive [inhibitor, partial curve, poor fit]",–
CC1(C)O[C@H]2[C@@H](O1)[C@@H](C(=O)Nc1ccccc1C(F)(F)F)O[C@@H]1OC(C)(C)O[C@@H]12,–,inactive: 19.7%
Nc1nonc1C(=O)NCCNC(=O)c1ccc(Cl)cc1,"inconclusive [inhibitor, full curve]",–
CCOc1ccc(C(=O)N2CCN(Cc3ccccc3)CC2)cc1OCC,"inconclusive [inhibitor, full curve, poor fit]",–
Cc1ccc(C(=O)N/N=c2\sc3ccccc3n2C)cc1,–,inactive: -9.9%
Cc1cc(C)nc(NC(=O)CCC2CCCC2)c1,"inconclusive [inhibitor, partial curve]",–
O=C(C1CCCN(S(=O)(=O)c2ccccc2)C1)N1CCN(c2ncccn2)CC1 (configuration not stated),"inconclusive [inhibitor, partial curve, poor fit]",–
COc1cc(C(=O)NCCCc2nc3ccccc3n2Cc2cc(C)ccc2C)cc(OC)c1OC,"inconclusive [inhibitor, full curve, poor fit]",–
Nc1cccc2c1C(=O)N(C(=O)/C=C/c1cccc(Br)c1)C2=O,–,inactive: -5.05%
COc1ccc(/C=C(\NC(=O)c2ccc(C)cc2)C(=O)NCCCn2ccnc2)cc1,–,inactive: 1.2%
Cc1csc(=O)n1CC(=O)Nc1ccc(C(C)C)cc1,"inconclusive [inhibitor, partial curve, poor fit]",–
Cn1c(SCC(=O)c2ccc(F)cc2)nnc1-c1cnccn1,"inconclusive [inhibitor, partial curve]",–
O=S(=O)(c1cccc(-c2cn3cccnc3n2)c1)N1CCOCC1,"inconclusive [inhibitor, full curve, poor fit]",–
CCOC(=O)c1nn(-c2cccc(OC)c2)c2nc(Nc3ccccc3)cc(=O)n12,"inconclusive [inhibitor, partial curve]",–
O=C(ONc1ccc(N=NC(=O)c2ccccc2O)cc1)c1ccccc1,–,inactive: -2.2%
N=c1sccn1Cc1ccc(Cl)cc1Cl,"inconclusive [inhibitor, full curve, poor fit]",–
CCOC(=O)c1cn2c(C)cccc2n1,"inconclusive [inhibitor, full curve, poor fit]",–
CC1CCN(c2c(NCC3CCC(C(=O)N4CCCCC4)CC3)c(=O)c2=O)CC1 (configuration not stated),"inconclusive [inhibitor, full curve, poor fit]",–
Cc1ccc(S(=O)(=O)N2CCSC2C(=O)O)cc1 (configuration not stated),"inconclusive [inhibitor, full curve, poor fit]",–
S=C1NC(c2ccccc2)=NCN1c1ccc(Br)cc1,"inconclusive [inhibitor, full curve, poor fit]",–
COc1ccc(CN2CCc3ccccc3C2)cc1Br,"inconclusive [inhibitor, full curve, poor fit]",–
Oc1ccc(-c2csc(-c3c[nH]c4ccccc34)n2)c(O)c1,–,inactive: -7.95%
CC(=O)Nc1cccc(NC(=O)CSc2nc(=O)n3cccc(C)c3n2)c1,"inconclusive [inhibitor, full curve, poor fit]",–

Structure (SMILES),Potency,"activity change, negative = inhibition"
CC1=C(C(N)=O)C(c2ccccn2)n2nc(-c3ccccc3Cl)nc2N1 (configuration not stated),"inconclusive [inhibitor, full curve, poor fit]",–
Cc1ccc(Cl)c(OCCN2CCc3ccccc3C2)c1,"inconclusive [inhibitor, single point]",–
COc1ccc(CSCC(=O)NN=C2CCN(C)CC2)cc1,"inconclusive [inhibitor, full curve, poor fit]",–
COc1ccccc1C(=O)n1nc(-c2ccco2)nc1N,"inconclusive [inhibitor, full curve]",–
Cc1nc2ccccc2nc(=O)c1NNc1ccccc1,"inconclusive [inhibitor, full curve, poor fit]",–
O=C(O)C(=O)/C(=C\c1ccsc1)c1ccc2ccccc2n1,–,inactive: -0.18%
Cc1nc2ccc(S(=O)(=O)CCC(=O)Nc3ccc(Cl)cc3)cc2s1,–,inactive: 5.15%
COc1cccc(NC(=O)CC(=O)Nc2ccc3nc4n(c(=O)c3c2)CCCCC4)c1,–,inactive: 5.46%
Cc1ccc(CSc2ncnc3c2cnn3-c2ccc(C)cc2)cc1,"inconclusive [inhibitor, partial curve, poor fit]",–
COc1cc([N+](=O)[O-])ccc1NC(=O)CC1SC(=Nc2ccc(F)cc2)N(CCC2=CCCCC2)C1=O (configuration not stated),"inconclusive [inhibitor, full curve, poor fit]",–
O=C(N/N=C/C1CC=CCC1)c1cc(-c2cccnc2)nc2ccccc12 (configuration not stated),"inconclusive [inhibitor, single point]",–
COc1ccc(S(=O)(=O)N2CCC(C(=O)Nc3ccccc3)CC2)cc1OC,–,inactive: 11.9%
CCOC(=O)c1c(C)[nH]c(C)c1S(=O)(=O)NCC(=O)Nc1cccc(C#N)c1,–,inactive: -0.527%
CC(C)(C)OC(=O)N1CCC[C@H]1C(=O)Nc1ccc(C#N)cc1,–,inactive: -2.65%
O=C(c1cccc(Cl)c1)N1c2nc(-c3ccco3)nn2C2(CCCCC2)[C@@H]2CCCC[C@@H]21,–,inactive: 15.7%
CC(C)(C)NS(=O)(=O)c1ccc(Oc2ncc(C(F)(F)F)cc2Cl)cc1,–,inactive: -5.37%
CCOC(=O)C(NC(=O)CCl)(Nc1ccc(C(O)(C(=O)OCC)C(F)(F)F)cc1)C(F)(F)F (configuration not stated),"inconclusive [inhibitor, partial curve, poor fit]",–
CCCc1cc2c(OC(=O)CC)c(-c3ccc(C(=O)OCC)o3)c(=O)oc2cc1OC,"inconclusive [inhibitor, full curve, poor fit]",–
CSc1nnc2c3ccccc3n(CCc3ccccc3)c2n1,"inconclusive [inhibitor, partial curve, poor fit]",–
COc1ccc(OC)c(C2=NOC(C(=O)N3CCN(c4ccccc4)CC3)C2)c1 (configuration not stated),"inconclusive [inhibitor, partial curve, poor fit]",–
CC(C)NC(=O)c1ccc(-n2c(=S)[nH]c3ccccc3c2=O)cc1,–,inactive: -12.9%
